Results on 15 variants are retold here after the supplement of paper PMC11125491.

B1: UniProt A0EPZ9; numbered along this chain (parent)
chain: MDWQKSLTLIVALTLSRGIGLKNDLPWKLKSDMMFFSRVTSGLLVTRSTGQMNVVLMGRKTWESLPAHSRPLKNRINVVISRQEVLDLGGGAYHARSLDDALALLSQIYDSTSKIQLNRVFVIGGGELCKAAMEHSRLNRIIATVIHNEVDCDVFFPIDFRSSQSCLPWRKQDHSVLEAWVGSKVPQGKINENGFIYEFEMWIRDI

The variants in the data set derive from B1. Briefly: selection coefficient against synonymous wild-type codons (log2 per generation); higher = faster growth than wild type. To be noted: with Saccharomyces cerevisiae carrying the variant on a plasmid. As to the method:
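Pooled growth of yeast carrying single-residue variants of P. jirovecii dihydrofolate reductase (own DFR1 gene intact), two passages at 30 °C, three cultures, sequenced before and after. Codons with under 15 starting reads are left out; codons of one change are averaged.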

± gives the standard deviation of the averaged measurements. Growth of baker's yeast expressing single-residue variants of Pneumocystis jirovecii dihydrofolate reductase in 8.8 or 44 µM methotrexate (about 75% and 90% inhibition of the wild type). Selection coefficient per generation; 0 = like wild type, above 0 = less sensitive, below 0 = more sensitive or loss of function. No active / inactive call per row; the paper calls resistant above 0.220 (8.8 µM) or 0.243 (44 µM) together with a significance test. At 44 µM about 15% of codons end with one read or none, so the lowest values are floors (replicate rank correlation 0.74; 0.94 at 8.8 µM).

Turning to MDWQKSLTLIVALTLSRGIGLKNDLPWKLKSDMMFFSRVTSGLLVTRSTGQMNVVLMGRKTWESLPAHSRPLKNRINVVISRQEVLDLGGGAYHARSLDDALALLSQIYDSTSKIQLNRVFVIGGGELLKAAMEHSRLNRIIATVIHNEVDCDVFFPIDFRSSQSCLPWRKQDHSVLEAWVGSKVPQGKINENGFIYEFEMWIRDI [C129L], the “selection coefficient against synonymous wild-type codons (log2)” value (“selection coefficient … (log2)” below) is, setting by setting: (methotrexate 8.8 µM) 0.401 ± 0.037; (methotrexate 44 µM) 0.597 ± 0.15.

On to MDWQKSLTLIVALTLSRGIGLKNDLPWKLKSDMMFFSRVTSGLLVTRSTGQMNVVLMGRKTWESLPAHSRPLKNRINVVISRQEVLDLGGGAYHARSLDDALALLSQIYDSTSKIQLNRVFVIGGGELCKAAMEHSRLNRIIATVIHNEVDCDVFFPIDFRSSQSCWPWRKQDHSVLEAWVGSKVPQGKINENGFIYEFEMWIRDI [L167W], for which the “selection coefficient … (log2)” value (methotrexate 8.8 µM) was -0.195 ± 0.059 and the “selection coefficient … (log2)” value (methotrexate 44 µM) was -0.216 ± 0.0099.

Take MDWQKSLTLIVALTLSRGIGLKNDLCWKLKSDMMFFSRVTSGLLVTRSTGQMNVVLMGRKTWESLPAHSRPLKNRINVVISRQEVLDLGGGAYHARSLDDALALLSQIYDSTSKIQLNRVFVIGGGELCKAAMEHSRLNRIIATVIHNEVDCDVFFPIDFRSSQSCLPWRKQDHSVLEAWVGSKVPQGKINENGFIYEFEMWIRDI [P26C]: the “selection coefficient … (log2)” value stood at 0.119 ± 0.05 (methotrexate 8.8 µM) and 0.165 ± 0.068 (methotrexate 44 µM).

For the variant MDWQKSLTLIVALTLSRGIGLKNDLPWKLKSDMMFFSRVTSGLLVTRSTGQMNVVLMGRKTWESLPAHSRPLKNRINVVISRQEVLDLGGGAYHARSLDDALALLSQIYDSTSKIQLNRVFVIGGGELCKAAMEHSRLNRIIATVIHNEVDCDVFFPIDFRSSQSCLPWRKQDHSVLEAWVGSWVPQGKINENGFIYEFEMWIRDI [K184W], the “selection coefficient … (log2)” value by setting is: (methotrexate 8.8 µM) -0.32 ± 0.049; (methotrexate 44 µM) -0.388 ± 0.06.

As to MDWQKSLLLIVALTLSRGIGLKNDLPWKLKSDMMFFSRVTSGLLVTRSTGQMNVVLMGRKTWESLPAHSRPLKNRINVVISRQEVLDLGGGAYHARSLDDALALLSQIYDSTSKIQLNRVFVIGGGELCKAAMEHSRLNRIIATVIHNEVDCDVFFPIDFRSSQSCLPWRKQDHSVLEAWVGSKVPQGKINENGFIYEFEMWIRDI [T8L], the “selection coefficient … (log2)” value by setting is: (methotrexate 8.8 µM) -0.471 ± 0.21; (methotrexate 44 µM) -0.191 ± 0.18.

Take MDWQKSLTLIVALTLSRGIGLKDDLPWKLKSDMMFFSRVTSGLLVTRSTGQMNVVLMGRKTWESLPAHSRPLKNRINVVISRQEVLDLGGGAYHARSLDDALALLSQIYDSTSKIQLNRVFVIGGGELCKAAMEHSRLNRIIATVIHNEVDCDVFFPIDFRSSQSCLPWRKQDHSVLEAWVGSKVPQGKINENGFIYEFEMWIRDI [N23D]: the “selection coefficient … (log2)” value reads like this: (methotrexate 8.8 µM) 0.296 ± 0.05; (methotrexate 44 µM) 0.329 ± 0.044.

Take MDWQKSLTLIVALTLSRGIGLKNDLPWKLKSDMMFFSRVTSGLLVTRSTGQMNVVLMGRKTWESLPAHSRPLKNRINVVISRQEVLDLGGGAYHARSLDDALALLSQIYDSTSKIQLNRVFVIGGGELCKAAMEHSRLNRIIATVIHNEVDCDVFFPIVFRSSQSCLPWRKQDHSVLEAWVGSKVPQGKINENGFIYEFEMWIRDI [D159V]: the “selection coefficient … (log2)” value was -0.0436 ± 0.057 (methotrexate 8.8 µM) and -0.199 ± 0.15 (methotrexate 44 µM).

As for MDWQKSLTLIVALTLSRGIGLKNDLPWKLKSDMMFFSRVTSGLLVTRSTGQMNVVLMGRKTWESLPAHSRPLKNRINVVISRQEVLDLGGGAYHARSLDDALALLSQIYDSTSKIQLNRVFVIGGGELCKAAMEHSRLNRIVATVIHNEVDCDVFFPIDFRSSQSCLPWRKQDHSVLEAWVGSKVPQGKINENGFIYEFEMWIRDI [I142V], the “selection coefficient … (log2)” value reads like this: (methotrexate 8.8 µM) -0.0564 ± 0.041; (methotrexate 44 µM) 0.127 ± 0.24.

As for MDWQKSLTLIVALTLSRGIGLKNDLPIKLKSDMMFFSRVTSGLLVTRSTGQMNVVLMGRKTWESLPAHSRPLKNRINVVISRQEVLDLGGGAYHARSLDDALALLSQIYDSTSKIQLNRVFVIGGGELCKAAMEHSRLNRIIATVIHNEVDCDVFFPIDFRSSQSCLPWRKQDHSVLEAWVGSKVPQGKINENGFIYEFEMWIRDI [W27I], the “selection coefficient … (log2)” value runs as follows: (methotrexate 8.8 µM) -0.123 ± 0.07; (methotrexate 44 µM) -0.19 ± 0.15.

In the case of MDWQKSLTLIVALTLSRGIGLKNDLPWKLKSDMMFFSRVTSGLLVTRSTGQMNVVLMGRKTWESLPAHSRPLKNRINVVISRQEVLDLGGGAYHARSLDDALALLSQIYDSTSKIQLNRVFVIGGGELCKAAMEHSRLNRIIATVIHNEVDCDEFFPIDFRSSQSCLPWRKQDHSVLEAWVGSKVPQGKINENGFIYEFEMWIRDI [V154E], the “selection coefficient … (log2)” value (methotrexate 8.8 µM) amounted to 0.383 ± 0.038 and the “selection coefficient … (log2)” value (methotrexate 44 µM) is 0.485 ± 0.035.

Take MDWQKSLTLIVALTLSRGIGLKNDRPWKLKSDMMFFSRVTSGLLVTRSTGQMNVVLMGRKTWESLPAHSRPLKNRINVVISRQEVLDLGGGAYHARSLDDALALLSQIYDSTSKIQLNRVFVIGGGELCKAAMEHSRLNRIIATVIHNEVDCDVFFPIDFRSSQSCLPWRKQDHSVLEAWVGSKVPQGKINENGFIYEFEMWIRDI [L25R]: the “selection coefficient … (log2)” value reads like this: (methotrexate 8.8 µM) 0.426 ± 0.064; (methotrexate 44 µM) 0.547 ± 0.092.

In the case of MDWQKSLTLIVALTLSRGIGLKNDLPWKLKSDMMFFSRVTSGLLVTRSTGQMNVVLMGRKTWESLPAHSRPLKNRINVVISRQEVLDLGGGAYHARSLDDALALLSQIYDSTSKIQLNRVFVIGGGELCKAAMEHSRLNRIIATVIHNEVDCDVFFPIDFRSSQSCLPWRKQDHSVLEAWVGSKVPQGKINENGFIYEFEMWVRDI [I203V], the “selection coefficient … (log2)” value is, setting by setting: (methotrexate 8.8 µM) 0.0569 ± 0.043; (methotrexate 44 µM) 0.0897 ± 0.095.

Take MDWQKSLTLIVALTLSRGIGLKNDLPWKLKSDMMFFSRVTSGLLVTRSTGQMNVVLMGRKTWESLPAHSRPLKNRINVVISRQEVLDLGGGAYHARSLDDALALLSQIYDSTSKIQLNRVFVIGGGELCKAAMEHSRLNRIIATVIHNEVDCDVFFPIDFRSSQSCLPWRKQDHSVLEAWVGSKVPQGKINENGFICEFEMWIRDI [Y197C]: the “selection coefficient … (log2)” value is, setting by setting: (methotrexate 8.8 µM) -0.145 ± 0.067; (methotrexate 44 µM) -0.185 ± 0.011.

As to MDWQKSLTLIVALTLSRGIGLKNDLPWKLKSDMMFFSRVTSGLLVTRSTGQMNVVLMGRKTWESLPAHSRPLKNRINVVISRQEVLDLGGGAYHARSLDDALALLSQIYDSTSKIQLNRVIVIGGGELCKAAMEHSRLNRIIATVIHNEVDCDVFFPIDFRSSQSCLPWRKQDHSVLEAWVGSKVPQGKINENGFIYEFEMWIRDI [F121I], the “selection coefficient … (log2)” value runs as follows: (methotrexate 8.8 µM) -0.219 ± 0.07; (methotrexate 44 µM) -0.147 ± 0.049.

As for MDWQKSLTLIVALTLSRGIGLKNDLPWKLKSDMMFFSRVTSGLLVTRSTGQMRVVLMGRKTWESLPAHSRPLKNRINVVISRQEVLDLGGGAYHARSLDDALALLSQIYDSTSKIQLNRVFVIGGGELCKAAMEHSRLNRIIATVIHNEVDCDVFFPIDFRSSQSCLPWRKQDHSVLEAWVGSKVPQGKINENGFIYEFEMWIRDI [N53R], the “selection coefficient … (log2)” value (methotrexate 8.8 µM) was -0.371 ± 0.09 and the “selection coefficient … (log2)” value (methotrexate 44 µM) is -0.279 ± 0.18.
